The chains are these.
T1: RBFOX1 RRM RbFoxmut (Fox-RRM*) (Homo sapiens, UniProt Q9NWB1 109-208, R118D;E147R;N151S;E152T)
T1 sequence: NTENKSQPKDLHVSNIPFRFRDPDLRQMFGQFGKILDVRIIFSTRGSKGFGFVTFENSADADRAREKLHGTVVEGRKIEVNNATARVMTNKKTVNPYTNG

B1: AUAUCUC (DNA:RNA)
RNA: GGGAGACCGGAAUUCAGAUUGUCCAUAUCUCUUAAAUCCCGUCGUAGCCACCA
DNA 1: CAATCTGAATTCCGGTCTCCC
DNA 2: TGGTGGCTACGACGGGATT
B2: CUCUCUU (DNA:RNA)
RNA: B1 RNA with A25C, A27C, C31U
DNA 1: CAATCTGAATTCCGGTCTCCC
DNA 2: TGGTGGCTACGACGGGATT
B3: UCACACG (DNA:RNA)
RNA: B1 RNA with A25U, U26C, U28C, C29A, U30C, C31G
DNA 1: CAATCTGAATTCCGGTCTCCC
DNA 2: TGGTGGCTACGACGGGATT
B4: UGUGUUA (DNA:RNA)
RNA: B1 RNA with A25U, U26G, A27U, U28G, C29U, C31A
DNA 1: CAATCTGAATTCCGGTCTCCC
DNA 2: TGGTGGCTACGACGGGATT
B5: UUAUAAG (DNA:RNA)
RNA: B1 RNA with A25U, C29A, U30A, C31G
DNA 1: CAATCTGAATTCCGGTCTCCC
DNA 2: TGGTGGCTACGACGGGATT
B6: GGGAACC (DNA:RNA)
RNA: B1 RNA with A25G, U26G, A27G, U28A, C29A, U30C
DNA 1: CAATCTGAATTCCGGTCTCCC
DNA 2: TGGTGGCTACGACGGGATT
B7: CCACACU (DNA:RNA)
RNA: B1 RNA with A25C, U26C, U28C, C29A, U30C, C31U
DNA 1: CAATCTGAATTCCGGTCTCCC
DNA 2: TGGTGGCTACGACGGGATT
B8: UCCUCGA (DNA:RNA)
RNA: B1 RNA with A25U, U26C, A27C, U30G, C31A
DNA 1: CAATCTGAATTCCGGTCTCCC
DNA 2: TGGTGGCTACGACGGGATT
B9: UGGCUUU (DNA:RNA)
RNA: B1 RNA with A25U, U26G, A27G, U28C, C29U, C31U
DNA 1: CAATCTGAATTCCGGTCTCCC
DNA 2: TGGTGGCTACGACGGGATT
B10: UACUCUC (DNA:RNA)
RNA: B1 RNA with A25U, U26A, A27C
DNA 1: CAATCTGAATTCCGGTCTCCC
DNA 2: TGGTGGCTACGACGGGATT
B11: CCACUGU (DNA:RNA)
RNA: B1 RNA with A25C, U26C, U28C, C29U, U30G, C31U
DNA 1: CAATCTGAATTCCGGTCTCCC
DNA 2: TGGTGGCTACGACGGGATT
B12: AUGUCCU (DNA:RNA)
RNA: B1 RNA with A27G, U30C, C31U
DNA 1: CAATCTGAATTCCGGTCTCCC
DNA 2: TGGTGGCTACGACGGGATT
B13: AUGUGAC (DNA:RNA)
RNA: B1 RNA with A27G, C29G, U30A
DNA 1: CAATCTGAATTCCGGTCTCCC
DNA 2: TGGTGGCTACGACGGGATT
B14: CUGGUGU (DNA:RNA)
RNA: B1 RNA with A25C, A27G, U28G, C29U, U30G, C31U
DNA 1: CAATCTGAATTCCGGTCTCCC
DNA 2: TGGTGGCTACGACGGGATT
B15: ACCUACU (DNA:RNA)
RNA: B1 RNA with U26C, A27C, C29A, U30C, C31U
DNA 1: CAATCTGAATTCCGGTCTCCC
DNA 2: TGGTGGCTACGACGGGATT
B16: UCUGGAU (DNA:RNA)
RNA: GGGAGACCGGAAUUCAGAUUGUCCUCUGGAUUUAAAUCCCGUCGUAGCCACCA
DNA 1: CAATCTGAATTCCGGTCTCCC
DNA 2: TGGTGGCTACGACGGGATT
B17: UGCCGGA (DNA:RNA)
RNA: B16 RNA with C26G, U27C, G28C, A30G, U31A
DNA 1: CAATCTGAATTCCGGTCTCCC
DNA 2: TGGTGGCTACGACGGGATT
B18: CCAAAAG (DNA:RNA)
RNA: B16 RNA with U25C, U27A, G28A, G29A, U31G
DNA 1: CAATCTGAATTCCGGTCTCCC
DNA 2: TGGTGGCTACGACGGGATT
B19: AAUUGCC (DNA:RNA)
RNA: B1 RNA with U26A, A27U, C29G, U30C
DNA 1: CAATCTGAATTCCGGTCTCCC
DNA 2: TGGTGGCTACGACGGGATT
B20: AAAAAGG (DNA:RNA)
RNA: B1 RNA with U26A, U28A, C29A, U30G, C31G
DNA 1: CAATCTGAATTCCGGTCTCCC
DNA 2: TGGTGGCTACGACGGGATT

Changes are numbered by the printed parent chain; changes in the protein carry UniProt numbers. This is one part of the list.

We go through 20 molecules from PMC9911399, “Two distinct binding modes provide the RNA-binding protein RbFox with extraordinary sequence specificity”.

In this test the target is T1, RBFOX1 RRM RbFoxmut (Fox-RRM*). Kind of test: EMSA; HiTS-Eq, 1 nM pool, 10 min; buffer printed only for the single-RNA assays: 10 mM Tris pH 7.5, 150 mM NaCl, 3.4 mM EDTA, 0.001% NP-40, 30 C. As to conditions: tags: His6 N-terminal (pET28a); label: 5' 32P. The method in brief: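 These values rest on relative association constants, computed from read-count changes of each RNA species versus the control reaction and normalised to the cognate motif. Reads came from free RNA recovered by 8% native PAGE after purified RbFox RRM (wild type or mutant) at increasing concentrations was equilibrated for 10 min in 50 µL with 1 nM of a 5′-radiolabelled pool with 7 randomized nucleotides and DNA-annealed flanks.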
For orientation: Mobility shift assays separate free from complexed probe on a gel.
Turning to B1, the binding signal was 0.0603 KA relative to UGCAUGU.

Consider B2, for which the binding signal is 0.045 KA relative to UGCAUGU.

As for B3, the binding signal was 0.11 KA relative to UGCAUGU.

As to B4, the binding signal is 0.154 KA relative to UGCAUGU.

As for B5, the binding signal is 0.11 KA relative to UGCAUGU.

Take B6: the binding signal was 0.152 KA relative to UGCAUGU.

For the molecule B7, the binding signal is 0.102 KA relative to UGCAUGU.

For the molecule B8, the binding signal was 0.105 KA relative to UGCAUGU.

Take B9: the binding signal is 0.0847 KA relative to UGCAUGU.

Regarding B10, the binding signal is 0.0515 KA relative to UGCAUGU.

Turning to B11, the binding signal was 0.105 KA relative to UGCAUGU.

For the molecule B12, the binding signal is 0.0916 KA relative to UGCAUGU.

As to B13, the binding signal is 0.0982 KA relative to UGCAUGU.

For B14, the binding signal was 0.127 KA relative to UGCAUGU.

In the case of B15, the binding signal is 0.0924 KA relative to UGCAUGU.

On to B16, for which the binding signal is 0.0456 KA relative to UGCAUGU.

As for B17, the binding signal is 0.0729 KA relative to UGCAUGU.

On to B18, for which the binding signal is 0.0785 KA relative to UGCAUGU.

Consider B19, for which the binding signal was 0.207 KA relative to UGCAUGU.

Turning to B20, the binding signal was 0.0629 KA relative to UGCAUGU.
